# Source: the supplement of paper PMC3334620
# The full ranking holds about 33,000 sequences; the median of “E-score (-0.5 to 0.5)” is about -0.012, and the highest 2% start at about 0.29. The list shows a part of the results.
# Biological target: T1, Ybr033w (UniProt P38073)
# T1 sequence: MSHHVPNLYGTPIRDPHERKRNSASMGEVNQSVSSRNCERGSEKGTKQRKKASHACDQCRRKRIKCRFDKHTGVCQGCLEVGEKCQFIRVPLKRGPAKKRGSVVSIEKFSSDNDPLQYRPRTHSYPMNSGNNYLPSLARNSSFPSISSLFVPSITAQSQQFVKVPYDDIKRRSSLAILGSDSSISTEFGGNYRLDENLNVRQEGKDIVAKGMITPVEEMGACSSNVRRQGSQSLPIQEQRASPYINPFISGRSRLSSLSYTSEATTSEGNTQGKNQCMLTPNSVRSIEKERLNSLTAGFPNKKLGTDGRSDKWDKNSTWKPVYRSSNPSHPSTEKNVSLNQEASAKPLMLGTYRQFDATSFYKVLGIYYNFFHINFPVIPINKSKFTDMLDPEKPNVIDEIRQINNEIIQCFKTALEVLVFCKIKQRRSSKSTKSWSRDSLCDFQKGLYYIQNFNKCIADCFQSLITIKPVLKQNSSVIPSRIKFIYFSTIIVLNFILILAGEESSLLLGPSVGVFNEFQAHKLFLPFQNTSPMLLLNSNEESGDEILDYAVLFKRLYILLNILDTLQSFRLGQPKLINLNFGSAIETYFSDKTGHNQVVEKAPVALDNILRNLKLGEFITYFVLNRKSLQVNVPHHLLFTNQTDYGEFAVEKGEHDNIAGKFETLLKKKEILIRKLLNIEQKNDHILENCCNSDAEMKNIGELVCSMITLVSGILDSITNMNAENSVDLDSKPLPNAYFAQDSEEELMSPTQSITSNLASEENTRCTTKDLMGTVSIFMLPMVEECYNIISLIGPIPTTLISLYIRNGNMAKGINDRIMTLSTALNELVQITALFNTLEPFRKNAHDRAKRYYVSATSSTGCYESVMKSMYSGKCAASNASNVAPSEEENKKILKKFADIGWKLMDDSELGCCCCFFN
# Test: PBM E-score (8-mer binding enrichment) (E-score (-0.5 to 0.5)); higher = stronger / more preferred TF binding; most listed sequences are background and not binding sites
# Settings: protein concentration: 200 nM; construct: GST-full length
# Description: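 Universal 'all 10-mer' protein binding microarrays (Agilent AMADID 015681) probed with GST-tagged S. cerevisiae TFs (full-length or DBD) made by in vitro transcription/translation (PURExpress), about 100-200 nM. Bound TF was detected with fluorescent anti-GST. Each ungapped 8-mer (which stands for itself and its reverse complement) is scored by the PBM enrichment score (E-score), a modified Wilcoxon-Mann-Whitney statistic from -0.5 to +0.5, computed with the Universal PBM Analysis Suite. Scale: above 0.35 generally sequence-specific binding.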
row,Sequence,PBM E-score
1,CCGAGTGC,-0.00553
2,CCCTTACA,0.0257
3,CGTATACA,0.168
4,CACGAATC,0.137
5,ATCGTTCG,-0.0743
6,GAGCCCTA,-0.201
7,ATTAGTAA,0.253
8,GTTCTTGA,0.0638
9,GCGTCGAC,-0.0133
10,CATCCATC,-0.106
11,CTACATTC,0.0884
12,GCCCGTCA,-0.327
13,GGAAAACC,-0.11
14,CTATTCCC,-0.043
15,ATTGGGAA,0.198
16,GCGGCCCA,-0.23
17,GACGTTCA,-0.23
18,TGCTTTAA,0.107
19,CAGCGCGC,0.0278
20,AACGACTC,-0.219
21,ACCGGCAG,-0.338
22,CTGGAAAC,-0.0702
23,GCTACACA,-0.191
24,AATGAATC,0.0507
25,CATGAGTC,0.0171

row,Sequence,PBM E-score
1,TAGAGCCA,-0.174
2,CACTTCTG,0.0004
3,GCTACGAC,-0.267
4,AGCTGCTA,0.11
5,CACTAATC,0.167
6,CATTTTTA,0.0686
7,GAGAATCA,0.0617
8,TATCCGCA,0.306
9,GATGTCAA,0.0645
10,CATGGGGA,-0.0852
11,ATTCCAGA,0.186
12,AGTGCGGG,-0.0831
13,CATGCTCC,-0.365
14,AGTACTAG,0.113
15,TGGAAAAA,0.458
16,CGACCAAG,-0.0195
17,AGAACAGA,0.0876
18,CTTTTGAC,0.0689
19,CTCTTCAG,-0.0572
20,GAAGTGGC,-0.0921
21,CGTTTGTA,0.167
22,GCCGTTTA,0.0411
23,CCTACGGA,-0.0441
24,CCGACATC,0.00453
25,ATGTTCAC,-0.063

row,Sequence,PBM E-score
1,AGGCGCTG,0.0389
2,AGACCTCC,-0.374
3,CAAGCATC,-0.0369
4,ATCTGGTA,0.0021
5,GTAAGTTA,0.0848
6,ACGTACGC,-0.0919
7,CGTTATTA,0.149
8,ACAAGGAC,-0.161
9,CTCGTCTC,-0.049
10,AGGGAATA,0.248
11,ATGCATGG,-0.0101
12,TATATATA,0.28
13,CACGATCG,-0.0361
14,AATGGGAC,-0.234
15,CAGGTGCA,-0.066
16,GTGAGCAC,-0.0679
17,CAAATCGG,-0.0226
18,CAACATAA,0.262
19,AGCGCCCC,-0.365
20,CTTTGTTA,0.264
21,CACGCTCG,-0.105
22,AGTGCAAA,0.162
23,ACCCGTCA,-0.184
24,CGGGACCC,-0.423
25,ATTATGAC,0.168

row,Sequence,PBM E-score
1,CTTGAGGA,0.0251
2,CGGTGAAC,0.00975
3,CGATATAG,-0.00624
4,ACGTCACA,0.0349
5,CACGTCTG,-0.0385
6,CAGCTAGG,-0.231
7,GCGGAACA,0.265
8,GGGCGACC,-0.291
9,AAATACAC,0.232
10,CAACTGCA,0.103
11,CGATAAAA,0.14
12,ACCCTTAC,0.0161
13,CCTCAGGC,-0.0814
14,AACCTTGC,-0.00024
15,CTTTCAAC,0.0503
16,CGGACTCC,-0.0898
17,AGGGTTAG,0.051
18,ACATATGA,0.125
19,GTCGTCCA,-0.0713
20,AAGACCGG,-0.257
21,CCACCCCG,-0.144
22,CCTCAAAC,-0.00888
23,AGGTCCGA,-0.0667
24,CTAGCTCC,-0.16
25,ACTCTTCT,0.0225

row,Sequence,PBM E-score
1,GAAGAGGA,-0.251
2,AATGTCTC,-0.00048
3,ATTCTAAG,0.0867
4,CCCTCCCC,-0.135
5,AACAATGA,0.203
6,TCATTGCA,0.0987
7,AGAGTAAT,0.313
8,GAACTCGC,0.0288
9,TCTCAACA,0.0911
10,CCCGCGCC,-0.285
11,AGTAGCCG,-0.0299
12,ACTTCCAG,0.0745
13,AGAACGTA,0.0159
14,AATTAGCG,0.161
15,CAATGCGA,0.0751
16,CGCCCAAC,-0.216
17,ACCGCTGG,-0.0154
18,AGGGACAG,-0.321
19,TTACCTAA,0.156
20,GGGCGTAC,0.00123
21,GAATATTA,0.315
22,CCAATGCG,-0.0114
23,CTGCGGTA,-0.0984
24,ACCATTTA,0.204
25,GTTGAAGA,0.0264

row,Sequence,PBM E-score
1,CAGGGATA,-0.00813
2,TTCACAAA,0.187
3,GACCAAGA,0.0606
4,CAGACGTA,-0.115
5,AAACCGCC,0.0737
6,CCCAGCTA,-0.165
7,GCTCATCC,-0.0162
8,ACGCCCCC,-0.229
9,CGCACGTA,-0.174
10,GAGATTGA,0.0919
11,ACCTGGAA,0.243
12,ATGCCGCA,0.0927
13,CATTCCCA,0.0691
14,AGACGACA,0.119
15,ATATCTGA,0.122
16,ACCATAAG,-0.0119
17,GAGGCAAC,-0.151
18,ACGTCCAA,-0.00884
19,GTTGGTAA,0.176
20,CGCTGCTA,-0.126
21,TCCACCGA,0.00065
22,AAGGGATG,-0.0361
23,CGTGGAGA,-0.15
24,ATGAGCGG,-0.151
25,GGCTTAAC,-0.00155

row,Sequence,PBM E-score
1,ACGATTCG,0.0605
2,CCCAGGTA,-0.225
3,CAATGGGC,-0.139
4,CCCCTCGA,-0.0714
5,GCTTATAC,-0.0477
6,TCTGGAAA,0.259
7,AGAGAGTA,0.00534
8,AGTGCCTC,-0.312
9,CGCGATAG,0.0293
10,ATCGTACG,-0.0517
11,AACAGCCC,-0.165
12,GAGAACTC,-0.0547
13,AAACGCAC,-0.0177
14,GACACTAA,-0.036
15,AAGATCAA,0.26
16,ATCTATGC,0.22
17,TCTCGTCA,0.0524
18,CCGACTAA,-0.0217
19,GATCTCAC,0.00113
20,AATTAATC,0.341
21,GTTGCAAA,0.231
22,AATAGCCA,0.0895
